Test results as given in PMC9911399, “Two distinct binding modes provide the RNA-binding protein RbFox with extraordinary sequence specificity”.
Positions count from the first letter of the chain named. Some of the results follow.

T1: RBFOX1 RRM (Homo sapiens, UniProt Q9NWB1 109-208)
T1 sequence: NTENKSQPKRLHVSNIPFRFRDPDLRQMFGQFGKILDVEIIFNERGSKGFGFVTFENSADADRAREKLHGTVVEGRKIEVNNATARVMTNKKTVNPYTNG

B1: UCUACUG (DNA:RNA)
RNA: GGGAGACCGGAAUUCAGAUUGUCCUCUACUGUUAAAUCCCGUCGUAGCCACCA
DNA 1: CAATCTGAATTCCGGTCTCCC
DNA 2: TGGTGGCTACGACGGGATT
B2: GACUAGC (DNA:RNA)
RNA: GGGAGACCGGAAUUCAGAUUGUCCGACUAGCUUAAAUCCCGUCGUAGCCACCA
DNA 1: CAATCTGAATTCCGGTCTCCC
DNA 2: TGGTGGCTACGACGGGATT
B3: GAUUUUA (DNA:RNA)
RNA: B2 RNA with C27U, A29U, G30U, C31A
DNA 1: CAATCTGAATTCCGGTCTCCC
DNA 2: TGGTGGCTACGACGGGATT
B4: ACCGUGA (DNA:RNA)
RNA: B2 RNA with G25A, A26C, U28G, A29U, C31A
DNA 1: CAATCTGAATTCCGGTCTCCC
DNA 2: TGGTGGCTACGACGGGATT
B5: UGGUAGU (DNA:RNA)
RNA: B2 RNA with G25U, A26G, C27G, C31U
DNA 1: CAATCTGAATTCCGGTCTCCC
DNA 2: TGGTGGCTACGACGGGATT
B6: AUAGCCA (DNA:RNA)
RNA: B1 RNA with U25A, C26U, U27A, A28G, U30C, G31A
DNA 1: CAATCTGAATTCCGGTCTCCC
DNA 2: TGGTGGCTACGACGGGATT
B7: UCAUACC (DNA:RNA)
RNA: B2 RNA with G25U, A26C, C27A, G30C
DNA 1: CAATCTGAATTCCGGTCTCCC
DNA 2: TGGTGGCTACGACGGGATT
B8: CAAACGU (DNA:RNA)
RNA: B2 RNA with G25C, C27A, U28A, A29C, C31U
DNA 1: CAATCTGAATTCCGGTCTCCC
DNA 2: TGGTGGCTACGACGGGATT
B9: AUGACUU (DNA:RNA)
RNA: B1 RNA with U25A, C26U, U27G, G31U
DNA 1: CAATCTGAATTCCGGTCTCCC
DNA 2: TGGTGGCTACGACGGGATT
B10: GGCUAUU (DNA:RNA)
RNA: B2 RNA with A26G, G30U, C31U
DNA 1: CAATCTGAATTCCGGTCTCCC
DNA 2: TGGTGGCTACGACGGGATT
B11: UUGCCCU (DNA:RNA)
RNA: B1 RNA with C26U, U27G, A28C, U30C, G31U
DNA 1: CAATCTGAATTCCGGTCTCCC
DNA 2: TGGTGGCTACGACGGGATT
B12: CAUUUGG (DNA:RNA)
RNA: B2 RNA with G25C, C27U, A29U, C31G
DNA 1: CAATCTGAATTCCGGTCTCCC
DNA 2: TGGTGGCTACGACGGGATT
B13: UUUGAGA (DNA:RNA)
RNA: B2 RNA with G25U, A26U, C27U, U28G, C31A
DNA 1: CAATCTGAATTCCGGTCTCCC
DNA 2: TGGTGGCTACGACGGGATT
B14: AGUUCUG (DNA:RNA)
RNA: B1 RNA with U25A, C26G, A28U
DNA 1: CAATCTGAATTCCGGTCTCCC
DNA 2: TGGTGGCTACGACGGGATT
B15: GCGAGUU (DNA:RNA)
RNA: B1 RNA with U25G, U27G, C29G, G31U
DNA 1: CAATCTGAATTCCGGTCTCCC
DNA 2: TGGTGGCTACGACGGGATT
B16: UUAUGUU (DNA:RNA)
RNA: B1 RNA with C26U, U27A, A28U, C29G, G31U
DNA 1: CAATCTGAATTCCGGTCTCCC
DNA 2: TGGTGGCTACGACGGGATT
B17: AGUUUAU (DNA:RNA)
RNA: B2 RNA with G25A, A26G, C27U, A29U, G30A, C31U
DNA 1: CAATCTGAATTCCGGTCTCCC
DNA 2: TGGTGGCTACGACGGGATT
B18: ACCGCUU (DNA:RNA)
RNA: B1 RNA with U25A, U27C, A28G, G31U
DNA 1: CAATCTGAATTCCGGTCTCCC
DNA 2: TGGTGGCTACGACGGGATT
B19: GGGAUCG (DNA:RNA)
RNA: B1 RNA with U25G, C26G, U27G, C29U, U30C
DNA 1: CAATCTGAATTCCGGTCTCCC
DNA 2: TGGTGGCTACGACGGGATT
B20: AUUGUGG (DNA:RNA)
RNA: B1 RNA with U25A, C26U, A28G, C29U, U30G
DNA 1: CAATCTGAATTCCGGTCTCCC
DNA 2: TGGTGGCTACGACGGGATT
B21: GAUGUAA (DNA:RNA)
RNA: B2 RNA with C27U, U28G, A29U, G30A, C31A
DNA 1: CAATCTGAATTCCGGTCTCCC
DNA 2: TGGTGGCTACGACGGGATT
B22: CAUUCUA (DNA:RNA)
RNA: B1 RNA with U25C, C26A, A28U, G31A
DNA 1: CAATCTGAATTCCGGTCTCCC
DNA 2: TGGTGGCTACGACGGGATT
B23: UAAUUUU (DNA:RNA)
RNA: B2 RNA with G25U, C27A, A29U, G30U, C31U
DNA 1: CAATCTGAATTCCGGTCTCCC
DNA 2: TGGTGGCTACGACGGGATT
B24: CCAGACA (DNA:RNA)
RNA: B2 RNA with G25C, A26C, C27A, U28G, G30C, C31A
DNA 1: CAATCTGAATTCCGGTCTCCC
DNA 2: TGGTGGCTACGACGGGATT
B25: GCUUGUG (DNA:RNA)
RNA: B1 RNA with U25G, A28U, C29G
DNA 1: CAATCTGAATTCCGGTCTCCC
DNA 2: TGGTGGCTACGACGGGATT
B26: CCUGCGA (DNA:RNA)
RNA: B1 RNA with U25C, A28G, U30G, G31A
DNA 1: CAATCTGAATTCCGGTCTCCC
DNA 2: TGGTGGCTACGACGGGATT
B27: AACCAAC (DNA:RNA)
RNA: B2 RNA with G25A, U28C, G30A
DNA 1: CAATCTGAATTCCGGTCTCCC
DNA 2: TGGTGGCTACGACGGGATT
B28: GUUAUCU (DNA:RNA)
RNA: B1 RNA with U25G, C26U, C29U, U30C, G31U
DNA 1: CAATCTGAATTCCGGTCTCCC
DNA 2: TGGTGGCTACGACGGGATT
B29: UAGGCCU (DNA:RNA)
RNA: B1 RNA with C26A, U27G, A28G, U30C, G31U
DNA 1: CAATCTGAATTCCGGTCTCCC
DNA 2: TGGTGGCTACGACGGGATT
B30: GGAGUAG (DNA:RNA)
RNA: B2 RNA with A26G, C27A, U28G, A29U, G30A, C31G
DNA 1: CAATCTGAATTCCGGTCTCCC
DNA 2: TGGTGGCTACGACGGGATT
B31: CAACACC (DNA:RNA)
RNA: B2 RNA with G25C, C27A, U28C, G30C
DNA 1: CAATCTGAATTCCGGTCTCCC
DNA 2: TGGTGGCTACGACGGGATT

These binders were tested against T1, RBFOX1 RRM (assay: EMSA; HiTS-Eq, 1 nM pool, 10 min; buffer printed only for the single-RNA assays: 10 mM Tris pH 7.5, 150 mM NaCl, 3.4 mM EDTA, 0.001% NP-40, 30 C). Conditions: tags: His6 N-terminal (pET28a); label: 5' 32P.
Summary of the method: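 Purified RbFox RRM, wild type or mutant, was incubated for 10 min in 50 µL with 1 nM of a 5′-radiolabelled RNA pool carrying 7 randomized nucleotides, whose flanks were annealed to DNA oligonucleotides, over a series of increasing protein concentrations. Unbound RNA was resolved on 8% native PAGE, cut out, reverse-transcribed, barcoded by PCR and sequenced on an Illumina HiSeq 2500. Relative association constants were derived from changes in read counts for each RNA species versus the control reaction and normalised to the cognate motif.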
With B1 the binding signal was 0.0124 KA relative to UGCAUGU. In the case of B2, the binding signal is reported as 0.01 KA relative to UGCAUGU. In the case of B3, the binding signal is reported as 0.00768 KA relative to UGCAUGU. B4 was tested, and the binding signal was 0.0086 KA relative to UGCAUGU. B5 was tested, and the binding signal was 0.0145 KA relative to UGCAUGU. For B6, the binding signal was 0.000219 KA relative to UGCAUGU. For B7, the binding signal was 0.00159 KA relative to UGCAUGU. B8 was tested, and the binding signal was 0.00161 KA relative to UGCAUGU. For B9, the binding signal was 0.00518 KA relative to UGCAUGU. With B10 the binding signal was 0.00578 KA relative to UGCAUGU. B11 was tested, and the binding signal was 0.0134 KA relative to UGCAUGU. For B12, the binding signal was 0.014 KA relative to UGCAUGU. With B13 the binding signal was 0.0149 KA relative to UGCAUGU. For B14, the binding signal was 0.0155 KA relative to UGCAUGU. With B15 the binding signal was 0.0199 KA relative to UGCAUGU. For B16, the binding signal was 0.0135 KA relative to UGCAUGU. In the case of B17, the binding signal is reported as 0.00376 KA relative to UGCAUGU. With B18 the binding signal was 0.0029 KA relative to UGCAUGU. B19 was tested, and the binding signal was 0.0449 KA relative to UGCAUGU. With B20 the binding signal was 0.00992 KA relative to UGCAUGU. In the case of B21, the binding signal is reported as 0.0112 KA relative to UGCAUGU. For B22, the binding signal was 0.00209 KA relative to UGCAUGU. B23 was tested, and the binding signal was 0.0151 KA relative to UGCAUGU. In the case of B24, the binding signal is reported as 0.00629 KA relative to UGCAUGU. In the case of B25, the binding signal is reported as 0.0418 KA relative to UGCAUGU. With B26 the binding signal was 0.0128 KA relative to UGCAUGU. In the case of B27, the binding signal is reported as 0.000641 KA relative to UGCAUGU. In the case of B28, the binding signal is reported as 0.0141 KA relative to UGCAUGU. For B29, the binding signal was 0.0167 KA relative to UGCAUGU. For B30, the binding signal was 0.0152 KA relative to UGCAUGU. With B31 the binding signal was 0.00238 KA relative to UGCAUGU.
